# Results reported in publication PMC4336329 (PLoS ONE, 2015).
# The whole screen tested about 310,000 compounds, of which about 2,200 (0.71%) showed an effect of 50% or more. Effects have a minus sign here. The list shows a part of the results.
# Biological target: human ether-à-go-go-related gene (hERG) potassium channel (human, UniProt Q12809)
# Assay: primary screen, population patch clamp on CHO cells stably expressing hERG
# Chain of human ether-à-go-go-related gene (hERG) potassium channel (Q12809 whole entry, looked up): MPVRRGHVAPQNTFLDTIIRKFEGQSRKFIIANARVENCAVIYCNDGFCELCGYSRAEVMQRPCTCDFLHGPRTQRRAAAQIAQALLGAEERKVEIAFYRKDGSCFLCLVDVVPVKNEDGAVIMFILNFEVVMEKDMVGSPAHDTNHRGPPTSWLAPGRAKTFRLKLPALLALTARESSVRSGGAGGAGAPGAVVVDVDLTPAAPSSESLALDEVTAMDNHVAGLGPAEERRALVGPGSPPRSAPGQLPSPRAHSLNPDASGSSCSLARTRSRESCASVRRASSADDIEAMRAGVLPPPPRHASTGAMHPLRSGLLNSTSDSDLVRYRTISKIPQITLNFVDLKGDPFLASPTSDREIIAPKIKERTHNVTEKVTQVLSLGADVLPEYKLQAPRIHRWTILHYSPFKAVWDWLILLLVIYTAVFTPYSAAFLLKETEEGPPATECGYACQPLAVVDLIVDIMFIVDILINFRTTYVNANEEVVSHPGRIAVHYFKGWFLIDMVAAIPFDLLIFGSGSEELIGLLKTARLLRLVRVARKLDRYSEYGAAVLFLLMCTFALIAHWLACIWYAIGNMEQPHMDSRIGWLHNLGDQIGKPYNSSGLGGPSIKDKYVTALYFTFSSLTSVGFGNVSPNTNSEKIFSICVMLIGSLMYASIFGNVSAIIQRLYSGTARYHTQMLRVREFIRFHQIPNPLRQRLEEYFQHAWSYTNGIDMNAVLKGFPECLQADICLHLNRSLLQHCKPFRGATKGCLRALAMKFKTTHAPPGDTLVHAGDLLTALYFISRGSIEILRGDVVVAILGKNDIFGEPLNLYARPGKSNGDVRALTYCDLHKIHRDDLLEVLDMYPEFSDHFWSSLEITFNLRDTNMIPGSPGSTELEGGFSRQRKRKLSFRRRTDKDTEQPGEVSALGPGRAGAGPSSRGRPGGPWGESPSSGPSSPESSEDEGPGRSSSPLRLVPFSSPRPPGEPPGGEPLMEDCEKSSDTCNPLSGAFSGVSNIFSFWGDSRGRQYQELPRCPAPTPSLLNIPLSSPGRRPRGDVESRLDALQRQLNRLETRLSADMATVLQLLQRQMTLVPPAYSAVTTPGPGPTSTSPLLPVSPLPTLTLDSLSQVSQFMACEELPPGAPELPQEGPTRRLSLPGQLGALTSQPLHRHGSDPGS
row,Structure (SMILES),"hERG current change (%, negative = inhibition) at 1uM"
1,COC(=O)N/N=C\c1ccc(OC/C=C/c2ccccc2)cc1,11.3%
2,Cc1ccc(NC(=O)CN(C)C(=O)C(C)OC(=O)c2ccccc2NCCO)cc1 (centres unmarked),13.3%
3,Cc1cccc(NC(=O)CSc2nc(N)c(NC(=O)c3ccccc3F)c(=O)[nH]2)c1,13.9%
4,Cc1cc(C)c(N2C(=O)CCCC2=O)c(Cl)c1,16.9%
5,CC(=O)Nc1cc(Br)ccc1O,10.2%
6,Cc1ccc(C)c(NC(=S)N2CCC(NC(=O)c3cccc(F)c3)CC2)c1,11.6%
7,O=C(c1ccccc1)c1cc([N+](=O)[O-])ccc1N1CCCC1,12.2%
8,C[C@H](NC(=O)COc1ccc(Cl)cc1)C(=O)N1CCC2(CC1)NCCc1[nH]cnc12,18.8%
9,CC(=O)Oc1ccc(C(=O)O)cc1OC(C)=O,8.81%
10,COc1cccc(NC(=O)Cn2c(=O)n(-c3cc(OC)c(OC)c(OC)c3)c(=O)c3ccccc32)c1,4.96%
11,Cc1ccc(-c2noc(CN(C)C(=O)c3ccoc3C)n2)cc1,9.37%
12,CC(C(=O)O)c1ccc2c(c1)[nH]c1ccc(Cl)cc12 (centres unmarked),20.5%
13,O=C(COC(=O)COc1cccc(C(F)(F)F)c1)Nc1ccc(N2CCOCC2)cc1,9.13%
14,O=C(Nc1ccno1)Nc1ccc(Cl)cc1Cl,10.6%
15,CC(CN1CCN(C)CC1)OC(=O)c1ccc(Cl)cc1Cl.Cl (centres unmarked),-3.28%
16,O=C(COC(=O)c1cccc([N+](=O)[O-])c1)NCC1CCCO1 (centres unmarked),8.29%
17,O=C(NCCN1CCOCC1)c1cc(-c2ccc(Cl)c(Cl)c2)on1,2.54%
18,Cc1cc(C)nc(N(C#N)Cc2ccccc2C)n1,-26.4%
19,Cc1ccc(S(=O)(=O)NNC(=O)c2c(O)c3ccccc3[nH]c2=O)cc1,11.2%

row,Structure (SMILES),"hERG current change (%, negative = inhibition) at 1uM"
1,C/C(Cl)=C\Cn1c(Nc2ccc(C)cc2)nc2c1c(=O)n(C)c(=O)n2C,10.4%
2,CC1CCC/C(=C\Nc2ccccc2C(=O)O)C1=O (centres unmarked),-5.84%
3,CS(=O)(=O)N(CC(=O)N1CCCC1)c1ccccc1F,13.3%
4,Cc1cc(OCC(=O)NCC(O)c2ccccc2)c2c3c(c(=O)oc2c1)CCC3 (centres unmarked),20.9%
5,COc1cccc(NC(=S)N(CCN(C)C)Cc2cccs2)c1,-2.49%
6,CCC1(c2ccccc2)NC(=O)N(CC(=O)NNC(=O)c2ccoc2C)C1=O (centres unmarked),4.5%
7,COc1ccc(-c2nnc(SC(C(=O)c3c[nH]c4ccccc34)c3ccccc3)n2N)cc1OC (centres unmarked),14%
8,COc1ccc2nc(NC(=O)C3CCCN(S(=O)(=O)c4cccc5nonc45)C3)sc2c1 (centres unmarked),12%
9,COc1ccc(CCNC(=O)CN(c2ccc(OC)c(OC)c2)S(=O)(=O)c2ccc(C)cc2)cc1,6.49%
10,CCC(=NCc1ccco1)c1c(C(F)(F)F)[nH]n(-c2nc3ccccc3s2)c1=O,7.52%
11,Cc1cc(C(=O)OCC(=O)Nc2ccc(F)cc2)c(C)o1,2.11%
12,CCNC(=S)N(C)CCc1cc2c(c(OC)c1C=C1C(=O)N(C)C(=O)N(C)C1=O)OCO2,12.5%
13,Nc1ccnc(=O)[nH]1,13.8%
14,CC1CC(=O)C2=C(C1)Nc1ccccc1N=C2 (centres unmarked),10.6%
15,Cc1cc(/C=N/n2cnnc2)c(C)n1-c1ccc(OCc2ccc(Cl)cc2Cl)cc1,10.2%
16,CCOCCn1c(=NC(=O)c2cc3ccccc3oc2=O)sc2cc(S(N)(=O)=O)ccc21,-30.2%
17,O=C1NCCCCC1NS(=O)(=O)c1ccccc1 (centres unmarked),13.5%
18,CCn1c(COc2ccccc2C(N)=O)nc2ccccc21,9.95%
19,O=C(Cc1ccc(Cl)cc1)Nc1ccccc1C(=O)N1CCCCC1,-6.78%

row,Structure (SMILES),"hERG current change (%, negative = inhibition) at 1uM"
1,Cc1ccccc1Cn1nc(C)c(NC(=O)c2nc3n(n2)C(C(F)F)CC(C)N3)c1C (centres unmarked),11%
2,Cc1ccccc1-n1ncc2c1CC(C)(C)CC2NC(=O)CCN1CCCCC1=O (centres unmarked),14.2%
3,CCOc1ccc(/C=N/Nc2cc(C)nc(N3CCOCC3)n2)cc1,10.7%
4,CCOP(=O)(OCC)C(Nc1cccc([N+](=O)[O-])c1)c1ccc(OC)cc1 (centres unmarked),8.66%
5,CCN1CCN(S(=O)(=O)c2ccc(Cl)c(C(=O)Nc3ccc(OC(F)F)cc3)c2)CC1,-10.5%
6,O=C(O)c1ccc(S(=O)(=O)c2ccc(Sc3ccc(C(=O)O)c(C(=O)O)c3)cc2)cc1,21.8%
7,Cn1c(CCNC(=O)c2ccco2)nc2cc([N+](=O)[O-])ccc21,-7.75%
8,COc1cc(S(=O)(=O)N2CCN(c3ccccc3F)CC2)c(OC)cc1Cl,3.35%
9,CN(C)c1ccc(C2Nc3ccccc3C(=O)N2NS(C)(=O)=O)cc1 (centres unmarked),15.5%
10,O=C(c1ccc(S(=O)(=O)NCc2ccco2)cc1)N1CCN(c2ccc(F)cc2)CC1,-21.5%
11,Cc1cc(CSCc2ccc(Cl)cc2)no1,19%
12,Cc1nn(CC(=O)N2CCC(C)CC2)c(=O)c2cccn12,18.5%
13,CCOC(=O)[C@H]1[C@H]2COc3ccccc3[C@@H]2N2C(=O)c3ccccc3NC(=O)[C@@]12C,11.7%
14,CCC(C)c1ccccc1NC(=O)CN(C)CC(=O)Nc1ccccc1SC (centres unmarked),10.2%
15,O=C(COC(=O)c1cncc(Br)c1)NCc1ccc(Cl)cc1,17.7%
16,CCOc1ccccc1-n1c(O)c(C=Nc2ccc(N(CC)CC)cc2)c(=O)[nH]c1=O,6.76%
17,CCOc1ccc(CC2CC(=O)NC2=O)cc1 (centres unmarked),10.1%
18,COC(=O)C1C2c3ccccc3C(c3ccccc32)C1C(=O)OC (centres unmarked),7.4%
